# Measured values reported in the supplement of paper PMC8728848.
# The other results are listed elsewhere or left out.
# B1: B1257 (Bifidobacterium sp) (protein)
# chain: MKKSIRLVAAIAALAMTAGISACGSSTNGNQAKSDVTAQDVETALTDTSKNVELTVWAYSAKQMEPTVKAFEKKYPHIKINFVNTGAAGDHFTKFQNVVQAQKDIPDVVQMGANKFQQFAVSGALLNFANDSIEKAWSKLYTKTAWAQVHYAGGLYGAPQDATPLANYVRKDILDEHNLQVPESWEDIYNEGIKLHKEDSNKYMGILGSDISFFTNLYRSVGARLWKVNSVDDVELTMNSGKAKEFTEFLQKCLKDGVLEGGTVFTDEFNRSINDGRYATFINENWMGNTYKEQNPSLKGKMVVAAPPSWKGQPYQSSSVGSMMSVSAACPKEKQAAALAFINWLDSDKDAIQSWQDTNNGNFFMAASVYQDDENQRNKKETDGYYANDDVNAVYFDSMDKVNTDWEYLPFMSQVEVVFNDVIVPQMNENGDLVGAMAKAQQELKTYAKDNGFKVTTDAD
# Key:
# Experiment in all cases: glycan array binding signal (z-score within array); higher = stronger binding
# Settings in all cases: glycan notation: IUPAC condensed, linker removed
# [1] = molecular target: Gal(b1-3)GlcNAc(b1-2)Man(a1-3)[Gal(b1-3)GlcNAc(b1-2)Man(a1-6)]Man(b1-4)GlcNAc(b1-4)[Fuc(a1-6)]GlcNAc
# Summary of the method: (§1)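 Negative Z-scores can be read as non-binding. The Z-score is calculated within each array and then averaged across arrays of one protein sequence at different concentrations or buffers and across linkers. Arrays, 3228 in all, were curated from the Consortium for Functional Glycomics database and kept only where the protein sequence was available.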
# [2] = molecular target: Gal(b1-3)GlcNAc(b1-2)Man(a1-3)[GlcNAc(b1-4)][Gal(b1-3)GlcNAc(b1-2)Man(a1-6)]Man(b1-4)GlcNAc(b1-4)GlcNAc
# Summary of the method: as §1
# [3] = molecular target: Gal(b1-3)GlcNAc(b1-2)[Gal(b1-3)GlcNAc(b1-6)]Man(a1-6)[Gal(b1-3)GlcNAc(b1-2)Man(a1-3)]Man(b1-4)GlcNAc(b1-4)GlcNAc
# Summary of the method: as §1
# [4] = molecular target: Gal(b1-3)GlcNAc(b1-3)Gal(b1-3)GlcNAc
# Summary of the method: as §1
# [5] = molecular target: Gal(b1-3)GlcNAc(b1-3)Gal(b1-4)Glc
# Summary of the method: as §1
# [6] = molecular target: Gal(b1-3)GlcNAc(b1-3)Gal(b1-4)GlcNAc
# Summary of the method: as §1
# [7] = molecular target: Gal(b1-3)GlcNAc(b1-3)Gal(b1-4)GlcNAc(b1-2)Man(a1-3)[Gal(b1-3)GlcNAc(b1-3)Gal(b1-4)GlcNAc(b1-2)Man(a1-6)]Man(b1-4)GlcNAc(b1-4)GlcNAc
# Summary of the method: as §1
# [8] = molecular target: Gal(b1-3)GlcNAc(b1-3)Gal(b1-4)GlcNAc(b1-2)[Gal(b1-3)GlcNAc(b1-3)Gal(b1-4)GlcNAc(b1-6)]Man(a1-6)[Gal(b1-3)GlcNAc(b1-3)Gal(b1-4)GlcNAc(b1-2)Man(a1-3)]Man(b1-4)GlcNAc(b1-4)[Fuc(a1-6)]GlcNAc
# Summary of the method: as §1
# [9] = molecular target: Gal(b1-3)GlcNAc(b1-3)Gal(b1-4)GlcNAc(b1-3)Gal(b1-4)GlcNAc(b1-2)[Gal(b1-3)GlcNAc(b1-3)Gal(b1-4)GlcNAc(b1-3)Gal(b1-4)GlcNAc(b1-6)]Man(a1-6)[Gal(b1-3)GlcNAc(b1-3)Gal(b1-4)GlcNAc(b1-3)Gal(b1-4)GlcNAc(b1-2)Man(a1-3)]Man(b1-4)GlcNAc(b1-4)[Fuc(a1-6)]GlcNAc
# Summary of the method: as §1
# [10] = molecular target: Gal(b1-3)GlcNAc(b1-3)Gal(b1-4)GlcNAc(b1-6)[Gal(b1-3)GlcNAc(b1-3)]Gal(b1-4)Glc
# Summary of the method: as §1
# [11] = molecular target: Gal(b1-3)GlcNAc(b1-3)Gal(b1-4)[Fuc(a1-3)]GlcNAc
# Summary of the method: as §1
# [12] = molecular target: Gal(b1-3)GlcNAc(b1-3)Gal(b1-4)[Fuc(a1-3)]GlcNAc(b1-6)[Gal(b1-3)GlcNAc(b1-3)]Gal(b1-4)Glc
# Summary of the method: as §1
# [13] = molecular target: Gal(b1-3)GlcNAc(b1-3)GalNAc
# Summary of the method: as §1
# [14] = molecular target: Gal(b1-3)GlcNAc(b1-6)Gal(b1-4)GlcNAc
# Summary of the method: as §1
# [15] = molecular target: Gal(b1-3)GlcNAc(b1-6)GalNAc
# Summary of the method: as §1
# [16] = molecular target: Gal(b1-3)GlcNAc(b1-6)[Gal(b1-3)]GalNAc
# Summary of the method: as §1
# Gal(b1-3)GlcNAc6S = molecular target: Gal(b1-3)GlcNAc6S
# Summary of the method: as §1
# [17] = molecular target: Gal(b1-3)[Fuc(a1-4)]GlcNAc
# Summary of the method: as §1
# [18] = molecular target: Gal(b1-3)[Fuc(a1-4)]GlcNAc(b1-2)Man
# Summary of the method: as §1
# [19] = molecular target: Gal(b1-3)[Fuc(a1-4)]GlcNAc(b1-2)Man(a1-3)[Gal(b1-3)[Fuc(a1-4)]GlcNAc(b1-2)Man(a1-6)]Man(b1-4)GlcNAc(b1-4)[Fuc(a1-6)]GlcNAc
# Summary of the method: as §1
# [20] = molecular target: Gal(b1-3)[Fuc(a1-4)]GlcNAc(b1-3)Gal(b1-3)[Fuc(a1-4)]GlcNAc
# Summary of the method: as §1
# [21] = molecular target: Gal(b1-3)[Fuc(a1-4)]GlcNAc(b1-3)Gal(b1-4)[Fuc(a1-3)]GlcNAc
# Summary of the method: as §1
# [22] = molecular target: Gal(b1-3)[Fuc(a1-4)]GlcNAc(b1-6)GalNAc
# Summary of the method: as §1
# [23] = molecular target: Gal(b1-3)[GlcNAc(b1-6)]GalNAc
# Summary of the method: as §1
# [24] = molecular target: Gal(b1-3)[Neu5Ac(a2-6)]GalNAc
# Summary of the method: as §1
# [25] = molecular target: Gal(b1-3)[Neu5Ac(a2-6)]GlcNAc(b1-4)Gal(b1-4)Glc
# Summary of the method: as §1
# [26] = molecular target: Gal(b1-3)[Neu5Ac(b2-6)]GalNAc
# Summary of the method: as §1
# Gal(b1-4)Gal = molecular target: Gal(b1-4)Gal
# Summary of the method: as §1
# [27] = molecular target: Gal(b1-4)GalNAc(a1-3)[Fuc(a1-2)]Gal(b1-4)GlcNAc
# Summary of the method: as §1
# [28] = molecular target: Gal(b1-4)GalNAc(b1-3)[Fuc(a1-2)]Gal(b1-4)GlcNAc
# Summary of the method: as §1
# Gal(b1-4)Glc = molecular target: Gal(b1-4)Glc
# Summary of the method: as §1
# Gal(b1-4)Glc6S = molecular target: Gal(b1-4)Glc6S
# Summary of the method: as §1
# Gal(b1-4)GlcNAc = molecular target: Gal(b1-4)GlcNAc
# Summary of the method: as §1
# [29] = molecular target: Gal(b1-4)GlcNAc(a1-6)Gal(b1-4)GlcNAc
# Summary of the method: as §1
# Gal(b1-4)GlcNAc(b1-2)Man = molecular target: Gal(b1-4)GlcNAc(b1-2)Man
# Summary of the method: as §1
# [30] = molecular target: Gal(b1-4)GlcNAc(b1-2)Man(a1-3)Man(b1-4)GlcNAc(b1-4)GlcNAc
# Summary of the method: as §1
# [31] = molecular target: Gal(b1-4)GlcNAc(b1-2)Man(a1-3)[Gal(b1-4)GlcNAc(b1-2)Man(a1-6)]Man(b1-4)GlcNAc(b1-4)GlcNAc
# Summary of the method: as §1
binder,measurement,setting,value
B1,glycan array binding signal (z-score),[1],-0.121
same,glycan array binding signal (z-score),[2],0.324
same,glycan array binding signal (z-score),[3],0.083
same,glycan array binding signal (z-score),[4],-0.077
same,glycan array binding signal (z-score),[5],-0.067
same,glycan array binding signal (z-score),[6],-0.015
same,glycan array binding signal (z-score),[7],-0.023
same,glycan array binding signal (z-score),[8],0.076
same,glycan array binding signal (z-score),[9],0.212
same,glycan array binding signal (z-score),[10],-0.062
same,glycan array binding signal (z-score),[11],-0.13
same,glycan array binding signal (z-score),[12],-0.021
same,glycan array binding signal (z-score),[13],-0.129
same,glycan array binding signal (z-score),[14],-0.056
same,glycan array binding signal (z-score),[15],0.012
same,glycan array binding signal (z-score),[16],0.202
same,glycan array binding signal (z-score),Gal(b1-3)GlcNAc6S,-0.058
same,glycan array binding signal (z-score),[17],-0.093
same,glycan array binding signal (z-score),[18],0
same,glycan array binding signal (z-score),[19],0.461
same,glycan array binding signal (z-score),[20],-0.086
same,glycan array binding signal (z-score),[21],-0.048
same,glycan array binding signal (z-score),[22],0.177
same,glycan array binding signal (z-score),[23],-0.04
same,glycan array binding signal (z-score),[24],-0.163
same,glycan array binding signal (z-score),[25],-0.197
same,glycan array binding signal (z-score),[26],-0.038
same,glycan array binding signal (z-score),Gal(b1-4)Gal,-0.08
same,glycan array binding signal (z-score),[27],-0.168
same,glycan array binding signal (z-score),[28],-0.052
same,glycan array binding signal (z-score),Gal(b1-4)Glc,-0.053
same,glycan array binding signal (z-score),Gal(b1-4)Glc6S,0.11
same,glycan array binding signal (z-score),Gal(b1-4)GlcNAc,-0.115
same,glycan array binding signal (z-score),[29],-0.093
same,glycan array binding signal (z-score),Gal(b1-4)GlcNAc(b1-2)Man,-0.056
same,glycan array binding signal (z-score),[30],-0.12
same,glycan array binding signal (z-score),[31],-0.064
